This is an account of results in paper PMC12136788.

B1: chr8:81716360:81716361:+_ENSMUSG00000071064_ENSMUST00000098614|mus_hu|FALSE|FALSE (ssRNA)
RNA: GGGAGUUCUACAGUCCGACGAUCCAAGUAGGCUCCCCAUCCAUGGCGGGAUGACUGGCAAAGGGAGGUGUAGCACACCUACUAGGUGUGGGGAAGAGGGGCUGGCGUGGAGGGGACUGAGGAGACCAUGGUGUGGACAGACAGCAACAGAGGAUUGAGCAUCA
B2: chr14:89307221:89307222:+_ENSG00000165533_ENST00000346301|hu_mus|hu_hu_hu_mus_False|28_38 (ssRNA)
RNA: GGGAGUUCUACAGUCCGACGAUCUCCUGUUUGGUUAGUGCCAGGGAGCUUCAAAGAUGUGCCAGGGCGUGGGACCUGAGCAAUAGCAUUUUCAUCCAGCAUCAUUUCUGCAAUUCCUUCCUGGUCCACAUCAAUUUCAUCUAUCAACAGAGGAUUGAGCAUCA
B3: chr9:91931296:91931297:+_ENSG00000123975_ENST00000314355|hu_hu|hu_hu_hu_mus_True|78_98 (ssRNA)
RNA: GGGAGUUCUACAGUCCGACGAUCAGAUUAGAUGAUCCCAGAUAAACUUCAUUUUUGUUGAUCUUUUGGAAGAGGUCGUCUAAAGAGAAGAAUAUGCGGUUCUGGCUCAUGAAUCAUGUAAUGAACCCAUCCUAGACUCUGUUGCAACAGAGGAUUGAGCAUCA
B4: 75320184_75320304_6387_CDS_ENSMUSG00000020850_ENSMUST00000102510|mouse|control|control (ssRNA)
RNA: GGGAGUUCUACAGUCCGACGAUCGGCACGAAGAUCAGAUAUGCAGAUGAACUUCUUAAGCACGUUUUUCGGAAGAAUGUACGUAUAACCAGUCUCCUUAAUGUCAUCAGAUGAAACAUAAAUAUGAUUGGUCCGCAGAUGCAGCAACAGAGGAUUGAGCAUCA
B5: 36136323_36136443_5331_3pUTR_ENSG00000100320_ENST00000405409|human|control|control (ssRNA)
RNA: GGGAGUUCUACAGUCCGACGAUCGUACAUAGGAAAAGGAAAGGGAGGGAAGAGGCUUUUGGACAGUAACAUUUCCAAAAAAAUAUAGUGUUUUAUGCAACAGAGAAUCAAGUUUCACUGUGUAUACUACAAAUGGUCAAACAUCAACAGAGGAUUGAGCAUCA
B6: chr11:46405157:46405158:+_ENSG00000110492_ENST00000395566|hu_hu|hu_hu_hu_mus_False|48_68 (ssRNA)
RNA: GGGAGUUCUACAGUCCGACGAUCCCCUCCCCACUUUGGGCACUUGGUGUGGGCGUGAGAGGACAGGAUGAUUGAUUAGAGCUGACAAGCAGACAGAAGGCACUGGUGGGUUAUAUCUUGGGCCUGUGGGAGAGGAGGGCUCCGCAACAGAGGAUUGAGCAUCA
B7: 67885784_67889917_929_CDS_ENSG00000142864_ENST00000370995|human|control|control (ssRNA)
RNA: GGGAGUUCUACAGUCCGACGAUCCCGGUCCUUAUUUUGAAUAGCCUUCCACUCAUCCAAAGUCAUCUCUUUUGGACCCUCCUCUUUUACCUCUUCAACUUCAUUCUCCUUAUUUUCAGUGUCUGCCACUGGAUGAUGUUCUUCCAACAGAGGAUUGAGCAUCA
B8: 4101213_4101333_793_3pUTR_ENSMUSG00000001467_ENSMUST00000001507|mouse|control|control (ssRNA)
RNA: GGGAGUUCUACAGUCCGACGAUCCACAGGUGUUGUCAGCCGACCGUAGACUUCUUCUGCAUUCAGGUCUUCGUUUUUACUAUUGAAGAGCAGCGCAGCUGCAUCACUCCCCAGAAGGUAAGUGAAGGUCUUGCCCACCAUGGUCAACAGAGGAUUGAGCAUCA
B9: chr16:16926518:16926519:+_ENSMUSG00000026181_ENSMUST00000027373|mus_mus|FALSE|FALSE (ssRNA)
RNA: GGGAGUUCUACAGUCCGACGAUCGAGGGGGACUUGAGCUCACAGCCACCCUUCUCCCUGUUCCUUCCCUGAGCCUCUACUAAGCCACCCAUUAUCCUGGCUAGGGGAUUCUUUUGGGAAGAGACUCUGAGGAGGAGGUGGCCACAACAGAGGAUUGAGCAUCA
B10: 25857120_25857240_208_5pUTR_ENSMUSG00000003378_ENSMUST00000003468|mouse|control|control (ssRNA)
RNA: GGGAGUUCUACAGUCCGACGAUCCUCCGAUGCUGGGUGCUGGUGAGGCUGGGGCCGGGGGAGAGGGCAGUCCACUGGGCCCCCUCCCCCGCCGCCGGCGGUGGCCCCCAACUAAUCCAAAACGGUGUCUCCCCAGCAGCGGGGCAACAGAGGAUUGAGCAUCA
B11: chr3:148802587:148802588:-_ENSG00000071794_ENST00000310053|hu_mus|hu_hu_hu_mus_False|1_28 (ssRNA)
RNA: GGGAGUUCUACAGUCCGACGAUCUCCAACAACUUGUCCUCUCAUAGUUCCAAAUAAAACCAAAUCUUGCUCUUCAUCACUCGUUAGGAAGUCAUCUGGAGGAAUAACAUCUUGGAAUUCAAAAUGUGGCAAGAAAGUUGGAUACAACAGAGGAUUGAGCAUCA
B12: 65597685_65604084_320_CDS_ENSMUSG00000037890_ENSMUST00000041892|mouse|control|control (ssRNA)
RNA: GGGAGUUCUACAGUCCGACGAUCUUUUGACCAAAGAAGGAAAGACAUUUGAUCCCUCAUGCCAUUGUCCAGCUGGCUGGUUUUAUUUGUGUUGGCAUCCCAUAGAUAAAUGCAACUAGACUUCUCAGCAAUCACUGCCAGGAUCAACAGAGGAUUGAGCAUCA
B13: chr7:31145180:31145181:-_ENSMUSG00000036957_ENSMUST00000046351|mus_mus|FALSE|FALSE (ssRNA)
RNA: GGGAGUUCUACAGUCCGACGAUCAAGCAGUGGCAAACGUGAGAAGAGUGGGUCAGGAGGGAUGGUGGUUAGGCGGUUGGAGGUCAUGUCCAGUCGUGCCAACUUGUGCAGGCGGGAAAAGGCUCCAGCGGGCACUGAAGCCAACAACAGAGGAUUGAGCAUCA
B14: chr3:45751083:45751084:+_ENSG00000211456_ENST00000389061|hu_hu|FALSE|FALSE (ssRNA)
RNA: GGGAGUUCUACAGUCCGACGAUCCCAUACAAACCGCUGAUCUGCCCUUUCCAAGAGACUCAUUUCUUGGAAUUCAGGACUAGUGUUGGAUAGCCGCUGCAAAGUAUGGGUCAAAUCAUAUGUUGUUGAAAAGUAAAAUCCAUCCAACAGAGGAUUGAGCAUCA
B15: 107755779_107755899_448_5pUTR_ENSMUSG00000032582_ENSMUST00000035201|mouse|control|control (ssRNA)
RNA: GGGAGUUCUACAGUCCGACGAUCAAAUCUACACACCAGCAUAUUCUUCUCUAAUCACAGCAUAUUCUUCUGUAAACAUAUUUUGGGGGGCAGAGUUCUGUAACAAGGUCCUAGAUCUGCAGAAAACAGCAAGUUUUGCUAUUUCAACAGAGGAUUGAGCAUCA
B16: chr5:125516475:125516476:-_ENSMUSG00000029478_ENSMUST00000125053|mus_mus|FALSE|FALSE (ssRNA)
RNA: GGGAGUUCUACAGUCCGACGAUCGGUCAAGGCGACUUGGGCUGUCCUCACCGACGAUCCUGCUGAUGGUACCCUUGUAGAGGACGUCUGCGGGCGUGCCGUGGGUGAUAGAGCCUCUGUAGCUGGGGCCGUCUGCAGCCCGGGCAACAGAGGAUUGAGCAUCA
B17: chr2:42509997:42509998:+_ENSG00000143924_ENST00000318522|hu_mus|hu_hu_hu_mus_True|1_108 (ssRNA)
RNA: GGGAGUUCUACAGUCCGACGAUCUCGCUGAGUUCUCUCCUCAUAAUUAAACAGGACUACCACUGAGGCGAUAAAAUAAACUAUCUCCCCUGUGGGAAGCAGGUAUACAUUCGCUCUACAGUCCUUUCCUCGAUAACCAUAUGCCAACAGAGGAUUGAGCAUCA
B18: 138631756_138633124_459_3pUTR_ENSMUSG00000036968_ENSMUST00000110934|mouse|control|control (ssRNA)
RNA: GGGAGUUCUACAGUCCGACGAUCUCCACUUUCACUCCCUUCUGGACCAGGCCUUUCAGUGUUGCCAUAGUCUGACUUUGACCCUUGGCGUAUCUUAGUGAGCCCUUGCGUUCAGCAUGAACAUUGUAAUCCAGGAUCCGCUCGCAACAGAGGAUUGAGCAUCA
B19: chr4:107939044:107939045:-_ENSMUSG00000034636_ENSMUST00000043616|mus_mus|FALSE|FALSE (ssRNA)
RNA: GGGAGUUCUACAGUCCGACGAUCACUUAUGAUGUCUGUGAUAGUGAUGUCAGCAUUCACACCCGUGGCAUCAAGUUCUACUAGCUUGUGGUGGCAAAAGGCUUUCCGGAAAGCAACAGCGGAAAUCUUUGCUUUGCGAAUGCACAACAGAGGAUUGAGCAUCA
B20: chr5:132440482:132440483:+_ENSG00000170606_ENST00000304858|hu_hu|motif|central (ssRNA)
RNA: GGGAGUUCUACAGUCCGACGAUCUUAAAGCAUAAUUAGAGCUCCUGCCAUGUAAGUCAUAAUGAAAAGUCUGCUGGAUAGCGGGAGCUGUAGCUAUAGCUCAACUUUCCAAAACAAACUUAUUCUUGUAGACACAUGGUUAAACAACAGAGGAUUGAGCAUCA
B21: chr7:7679991:7679992:-_ENSG00000106399_ENST00000396682|hu_hu|hu_hu_hu_mus_False|1_68 (ssRNA)
RNA: GGGAGUUCUACAGUCCGACGAUCUGGGAUGAAUCUUUUCCAGCUUCCCCACGAAGCACACGGGCCGGUCGAUGAAUUGUGGUAACAUGCUGGCGUUGACGCGCGCUUUGGGGAGCUGCAUUAUGUCCUCCAUGAUUAUGGUCCCAACAGAGGAUUGAGCAUCA
B22: chr12:39756943:39756944:-_ENSG00000139116_ENST00000544797|hu_mus|hu_hu_hu_mus_False|1_38 (ssRNA)
RNA: GGGAGUUCUACAGUCCGACGAUCGGUUUGGCUGUUACCCCCAAGGGAAUCCUGCAAGAGUCUUGUCAGCUUAGAGUCUCUGUAAGGGACAUGGGUGGCCCUCUUGCUCUUGUCCCCCAAGGCGCUGAUUACAUUCCCAAGUGCCAACAGAGGAUUGAGCAUCA

Some of the results follow.

The target in this test is T1, UNK ZnF1-3 (human, UniProt Q9C0B0 31-174).
T1 sequence: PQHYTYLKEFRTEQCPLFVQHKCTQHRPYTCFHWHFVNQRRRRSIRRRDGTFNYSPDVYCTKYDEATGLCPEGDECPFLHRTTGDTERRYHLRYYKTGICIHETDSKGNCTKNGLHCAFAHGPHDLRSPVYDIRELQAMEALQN
The test is described as follows: nsRBNS (natural sequence RNA bind-n-seq); RBNS binding buffer (assumed for nsRBNS): 25 mM Tris pH 7.5, 150 mM KCl, 3 mM MgCl2, 0.01% Triton X-100, 500 ug/ml BSA, 20 U/ml SUPERase-In, 4 C; UNK is unkempt and MSI1 is Musashi-1; names of the RNAs are library labels; protein concentration not given here; high values mean tight binding.
As for B1, the binding signal stood at 1.9 enrichment R. B2: the binding signal is 1.11 enrichment R. With B3 the figure was 1.09 enrichment R. With B4 the figure was 0.922 enrichment R; with B5, 2.59 enrichment R.

Molecule B6 returned a binding signal of 1.99 enrichment R. B7: the binding signal worked out at 0.423 enrichment R. With B8, the binding signal worked out at 0.897 enrichment R. For the molecule B9, the binding signal came to 0.485 enrichment R. As to B10, the binding signal turned out to be 0.769 enrichment R. The value for B11 was 1.28 enrichment R; that for B12 was 0.979 enrichment R; that for B13 was 1.2 enrichment R. The value for B14 was 0.823 enrichment R. The value for B15 was 1.06 enrichment R; that for B16 was 0.961 enrichment R. The molecule B17 registered a binding signal of 1.01 enrichment R. With B18 the figure was 0.506 enrichment R; with B19, 1.07 enrichment R.

Molecule B20 returned a binding signal of 0.583 enrichment R. B21 yielded a binding signal of 0.459 enrichment R. With B22 the figure was 0.675 enrichment R.
